Measured values as given in PubChem BioAssay AID686979 (National Center for Advancing Translational Sciences (NCATS), 2013).
Where “and” joins values, the source holds several entries; their conditions need not be identical. Equal values may be shown once. The campaign covered roughly 420,000 compounds. About 50,000 (12%) were called active. The inconclusive results got no clear call from the source; some entries with a clear call stand among them for comparison. Calls follow the shape of the dose curve; as a rule, active = well fitted inhibition curve with a large enough effect; inconclusive = small, poorly fitted or top-dose-only effect; inactive = flat fitted curve, though single readings scatter. Potencies of inconclusive entries are left out as doubtful fits.

Experiment: qHTS for Inhibitors of human tyrosyl-DNA phosphodiesterase 1 (TDP1): qHTS in cells in presence of CPT; also: nearly all actives have a fitted effect of over 55% in size
Details: chicken DT40 Tdp1-/-;hTDP1 cells + 20 nM CPT, ATP luminescence, 48 h; activity change, negative = growth inhibition: at 46.2 µM (top of the series) unless noted
How it was run: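 Chicken DT40 Tdp1-/- cells complemented with human TDP1, 400 cells/well, exposed to compounds plus 20 nM camptothecin for at least 48 h at 37 C; viability read as ATP content by CellTiter-Glo luminescence.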
% is scaled to controls: 0 for no effect and ±100 for the full control effect; potency is read from the fitted curve at half-maximal effect; tags tell the direction and shape of the fitted curve.

SMILES | Potency | activity change, negative = growth inhibition
CC(C)CCNC(=O)c1cccc(S(=O)(=O)N2CCc3ccccc32)c1 | active: 14.6 µM | –
Cc1c(NC(=O)CN2CCN(c3ccc(O)cc3)CC2)c(=O)n(-c2ccccc2)n1C | inconclusive [inhibitor, single point] | –
Cc1cccc(C(=O)NC2CCN(S(=O)(=O)c3ccc(F)cc3)CC2)c1 | inconclusive [inhibitor, single point] | –
N[C@H](C(=O)O)c1ccc(O)cc1 | inactive | –
Cc1ccc(Cl)c(N/C=C/C(=O)c2ccccc2)c1 | inactive | –
CCC(C(=O)NCc1ccco1)N(C(=O)CNS(=O)(=O)c1ccc(C)cc1)c1ccccc1OC (centres undefined) | inconclusive [inhibitor, single point] | –
O=C(c1ccco1)N(Cc1ccc([N+](=O)[O-])cc1)c1ccc(Br)cc1 | inconclusive [inhibitor, single point] | –
CC(C)c1ccc(NC2CCCN(C(=O)CSc3nncn3C)C2)cc1 (centres undefined) | inactive | –
COc1ccc2nc(/N=C(\N)NC(=O)N3c4ccccc4Sc4ccccc43)nc(C)c2c1 | active: 13 µM | –
CC(/C=N/n1c(-c2cc(C)[nH]n2)n[nH]c1=S)=C\c1ccccc1 | inconclusive [inhibitor, single point] | –
COc1cccc2c1Oc1ncccc1N(C(=O)CCC(=O)NCc1cccc(C)c1)C2 | inactive | –
COc1ccc(NC(=S)N/N=C2\CC(C)(C)Oc3ccc(OC)cc32)cc1 | active: 5.8 µM | –
CNc1cncc(-c2ccc(NS(C)(=O)=O)cc2)n1 | active: 2.91 µM | –
CCOc1ccc(CC(=O)Nc2c3c(nn2C(C)(C)C)CS(=O)(=O)C3)cc1 | inactive | –
CC(C)(C)C(=O)Nc1ccc(-c2nc3ccccc3s2)cc1 | inconclusive [inhibitor, partial curve] | –
CC1(c2ccc(Cl)cc2)NC(=O)N(CC(=O)N2CCc3ccccc32)C1=O (centres undefined) | active: 25.9 µM | –
CN(C)c1ccc(C(=O)Nc2cccc(S(=O)(=O)N3CCCC3)c2)cc1 | inconclusive [inhibitor, single point] | –
CCOc1ccc(-c2c(C)nn3c(C)c(C(=O)NCc4cccc(OC)c4)cnc23)cc1OCC | active: 9.2 µM | –
Cc1ccc(Cl)cc1-c1cc(C(=O)NCc2cc(C(F)(F)F)cc(C(F)(F)F)c2)[nH]n1 | inconclusive [inhibitor, single point] | –
CCCCCN(C(=O)CCC(=O)OCC(=O)c1ccc(CCC)cc1)c1c(N)n(CCCC)c(=O)[nH]c1=O | – | inconclusive: -31.1% [inhibitor]
C=CCOc1ccc(Cl)cc1CNC1CCCC1 | inconclusive [inhibitor, single point] | –
CNc1nc(-c2ccccc2C)nc2ccccc12 | inconclusive [inhibitor, single point] | –
COc1ccc(Cn2nnnc2C(c2ccccc2Cl)N2CCN(C3CCCC3)CC2)cc1 (centres undefined) | inconclusive [inhibitor, single point] | –

SMILES | Potency | activity change, negative = growth inhibition
CCNc1nc2c(c(=O)n(C)c(=O)n2C)n1Cc1ccc(Cl)cc1 | active: 3.66 µM | –
Cc1nc(CN(C)C(=O)CC2C(=O)NCCN2Cc2ccc(-c3ccccc3)cc2)cs1 (centres undefined) | inconclusive [inhibitor, single point] | –
Cc1ccc(NC(=O)c2ccc(S(=O)(=O)N3CC(C)CC(C)C3)cc2)cc1S(=O)(=O)N1CCOCC1 (centres undefined) | active: 16.4 µM | –
COc1ccc(-n2ncc(C(=O)N3CCN(Cc4ccccc4)CC3)c2C2CCN(C(=O)OC(C)(C)C)CC2)cc1 | active: 13 µM | –
CCOc1cc(C(=O)N(Cc2nc(-c3ccc(C)cc3)no2)C(C)C)cc(OCC)c1OCC | active: 16.4 µM | –
COC(=O)/C=C\C(C#N)(C#N)N=Cc1ccc(OC)cc1 | active: 1.3 µM | –
CCc1cnc2c(c1SCc1c(F)cccc1Cl)c(=O)n(C)c(=O)n2C | active: 14.6 µM | –
Cc1ccccc1N1CCN(C2CCCN(C(=O)c3csc(C(C)C)n3)C2)CC1 (centres undefined) | inconclusive [inhibitor, single point] | –
COc1ccc(-c2csc3ncnc(N4CCN(S(=O)(=O)c5cccc(C(F)(F)F)c5)CC4)c23)cc1 | inconclusive [inhibitor, single point] | –
COCCNC(=O)CN1C(=O)/C(=C/c2ccccc2)Oc2ccc(C(C)(C)C)cc21 | inconclusive [inhibitor, single point] | –
Cc1ccc(C)c(N2CCN(C(=O)c3ccc(N4CCOCC4)c([N+](=O)[O-])c3)CC2)c1 | inconclusive [inhibitor, partial curve] | –
CC(=O)c1cccc(NC(=O)c2ccc(S(=O)(=O)N3CCCCC3)cc2)c1 | active: 23.1 µM | –
Cc1oc(-c2ccccc2)nc1Cn1c(SCc2cccc(C(F)(F)F)c2)nc2cccnc21 | inconclusive [inhibitor, single point] | –
COc1ccccc1CN1CC(C(=O)N(C)CCc2nc3ccc(F)cc3[nH]2)CCC1=O (centres undefined) | inactive | –
CO/N=C(\Cn1ncc(N2CCOCC2)c(Br)c1=O)c1ccc(Cl)cc1 | inconclusive [inhibitor, partial curve] | –
CCc1ccccc1Nc1nn2c(=O)c3ccc(C(=O)NC4CCC(C)CC4)cc3nc2s1 (centres undefined) | inconclusive [inhibitor, partial curve, poor fit] | –
CCOCCCNC(=O)C(NC(=O)CNC(=O)c1ccccc1)c1ccc(OC)cc1 (centres undefined) | inactive | –
CC(C)=CCC[C@H](C)C[C@@H]1Cc2[nH][nH]c(=O)c2[C@H](c2ccc(F)cc2)O1 | inconclusive [inhibitor, single point] | –
CC1(C)Cc2c(C#N)c(NCCCO)nc(-c3ccccc3)c2CO1 | inconclusive [inhibitor, single point] | –
COc1ccc(CCNC(=O)CCCn2c(=O)c3ccccc3n(CC(=O)Nc3cccc(C)c3)c2=O)cc1OC | inconclusive [inhibitor, single point] | –
CCN(c1ccc2c(c1)OCO2)S(=O)(=O)c1cc2c(cc1Br)CCN2C(=O)C1CC1 | active: 16.4 µM | –
CCCOc1ccc(C(=O)Nc2ccc(S(=O)(=O)NC3=NCCCCC3)cc2)cc1 | active: 13 µM | –
CC(=O)c1c(C(C)=O)c(C)n(-c2nc(-c3cccs3)c(C)s2)c1C | inconclusive [inhibitor, single point] | –

SMILES | Potency | activity change, negative = growth inhibition
CCCCCC(=O)Nc1nc(C)c(-c2csc(Nc3cc(OC)ccc3OC)n2)s1 | active: 4.11 µM | –
Cc1nn(C(=O)COc2ccc(Cl)cc2)c(C)c1Sc1ccccc1 | – | inconclusive: -13.3% [inhibitor]
COc1ccc(C2=NN(C(=O)CSc3cn(C)c4ccccc34)C(c3ccc(OC)cc3)C2)cc1 (centres undefined) | inconclusive [inhibitor, single point] | –
CCSc1nnc(N2C(=O)c3ccc(C(=O)c4ccc(C(=O)O)cc4)cc3C2=O)s1 | inactive | –
Cc1cc(Cl)ccc1C(=O)C1CCCN(C(=O)c2ccsc2)C1 (centres undefined) | inconclusive [inhibitor, single point] | –
CCOC(=O)c1ccc(NC(=O)CC2C(=O)N(c3ccccc3)C(=O)N2Cc2ccc(C)cc2)cc1 (centres undefined) | inconclusive [inhibitor, single point] | –
COc1ccc(/C=N/NC(=O)CSCC(=O)Nc2ccccc2)cc1OC | inactive | –
O=C1N=c2ccccc2=C1c1sc(Nc2cccc(O)c2)nc1O | inconclusive [inhibitor, single point] | –
CC(C)(C)c1cnnn1-c1ccc(NC(=O)c2ccc(Br)o2)cc1 | inactive | –
CC(NCc1cccs1)c1ccccc1 (centres undefined) | inactive | –
Cc1ccc(Cl)cc1NC(=O)Cn1c(=O)cc(C)c2c(C)nn(C)c21 | active: 11.6 µM | –
COc1cc(NC(=O)c2ccc(COc3ccccc3Br)o2)cc(OC)c1OC | inconclusive [inhibitor, single point] | –
O=C(Cn1c(=O)c2sccc2n(Cc2ccc([N+](=O)[O-])cc2)c1=O)NCCc1ccccc1 | inconclusive [inhibitor, single point] | –
CCCc1ccc(C2C3=C(CC(C)(C)CC3=O)NC3=C2C(=O)c2ccccc23)cc1 (centres undefined) | active: 20.6 µM | –
C=CCn1c(-c2ccc(OC)c(OC)c2)cs/c1=N\c1ccccn1 | inconclusive [inhibitor, single point] | –
CC(C)Cc1nc2oc3c(NCC(C)O)ncnc3c2c2c1CCCC2 (centres undefined) | inconclusive [inhibitor, single point] | –
CN1CCN(c2nc(-c3ccccn3)nc3ccccc23)CC1 | inconclusive [inhibitor, single point] | –
COc1cc(C(=O)Nc2ccc(NC(C)=O)cc2)ccc1OCc1ccccc1 | inconclusive [inhibitor, full curve] | –
CN(C)c1ccc(/C=C/c2nnnn2-c2ccccc2)cc1 | inconclusive [inhibitor, partial curve] | –
Cc1cc(C)c(S(=O)(=O)Nc2ccc3oc(C)c(C(=O)OC(C)C)c3c2)cc1C | inconclusive [inhibitor, single point] | –
COc1ncnc2c1ncn2CC1COC(C)(C)O1 (centres undefined) | inactive | –
Cn1c(N/N=C/c2ccccc2)nc2sc3c(c2c1=O)CCC3 | inconclusive [inhibitor, single point] | –
CCCCCCSc1ccc(-c2nc3cc(C)ccn3c2NC2CCCCC2)cc1 | active: 7.31 µM and active: 18.4 µM | –
